# According to PubChem BioAssay (NCATS):
# This list was built around the results that the source calls inconclusive (neither active nor inactive); the mix of calls is not that of the screen. For some of these results: No potency is given beside an inconclusive call; the fits are too rough. Active and inactive are the calls of the source. Unless noted, the call rests on the fitted dose curve; in most records, active means well fitted curve in the direction sought with a large enough effect; inconclusive means small, poorly fitted or top-dose-only effect, or another doubt; inactive means no such curve, though single readings can be large; an effect the other way counts as inactive or inconclusive.
# Assays:
# [1] = Cytometry Cell-Based qHTS for Inhibitors of the mTORC1 Signaling Pathway in MEF cells (AID 2668); further: potency means the concentration at half of the fitted maximal effect
# Summary of the method: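 Read-out: phospho-rpS6 Ser235/236 immunofluorescence normalized to propidium iodide intensity, scored as % active cells against a rapamycin (7.5 nM) threshold. Cells: Tsc2-/-, p53-/- MEFs stably expressing WT Tsc2, compound-treated 24 hrs at 37 degree Celsius.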
# [2] = target: ATP-dependent 6-phosphofructokinase (Trypanosoma brucei brucei) (UniProt O15648); experiment: qHTS Validation Assay to Find Inhibitors of T. brucei phosphofructokinase (AID 485368); further: potency means the concentration at half of the fitted maximal effect
# Summary of the method: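 ADP-Glo luminescence, two-step: residual ATP depleted, then ADP converted to ATP for luciferase. Enzyme 1.25 nM, F6P 0.5 mM, ATP 0.1 mM, pH 8.0 TEA buffer, 45 min RT. Curves fitted and classed by quality and efficacy.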
# [3] = Cytometric Cell-Based qHTS for Inhibitors of the mTORC1 Signaling Pathway in MEF (Tsc2-/-, p53-/-) Cells (AID 2660);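 further: Tsc2 and p53 null MEFs carrying empty vector with compound for 24 h; percent of cells above a phospho-rpS6 to PI ratio cutoff in each well; plate controls were DMSO for no effect and rapamycin for full effect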
# Summary of the method: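 Immunofluorescence qHTS of rpS6 Ser235/236 phosphorylation: MEFs (Tsc2-/-, p53-/-) treated 24 h, 37 C, in DMEM + 10% FBS. Alexa-488 signal normalized to PI count, referenced to rapamycin (7.5 nM) and DMSO; PI cell number recorded for viability.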
# [4] = Quantitative high throughput screen for delayed death inhibitors of the malarial parasite plastid, 48 hour incubation (AID 488752); further: nearly all actives have a fitted effect of over 65% in size; further: potency means the concentration at half of the fitted maximal effect
# Summary of the method: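 One-generation (48 h) growth assay: a decrease in luciferase signal from an integrated reporter in P. falciparum-infected red cells (0.1% parasitemia, 2% hematocrit) after compound exposure at 37 C indicates parasite inhibition.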
# [5] = qHTS Validation Assay to Find Inhibitors of Chronic Active B-Cell Receptor Signaling (AID 485345; active means well fitted curve in the direction sought with a large enough effect in the main read-out, with a control signal flat, not every such curve was filed as active; inconclusive means small, poorly fitted or top-dose-only effect, or effect the other way, or a change in a side signal; inactive means no such curve, though single readings can be large or run the other way;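 further: 0% = untreated basal cells and 100% = 10 µM MG-132 proteasome inhibitor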); settings: ABC-DLBCL cells, chronic BCR signaling reporter, CBG luciferase; at 46.1 µM (top of the series)
# Summary of the method: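 TMD8 ABC-DLBCL cells with dox-inducible green luciferase–IκBα fusion and red native luciferase; compounds 46 uM–3 nM, 4 h at 37C with doxycycline in 0.5% FBS IMDM. Green/red ratio normalized to basal and 10 uM MG-132.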
# [6] = Quantitative high throughput screen for delayed death inhibitors of the malarial parasite plastid, 96 hour incubation (AID 488745); further: nearly all actives have a fitted effect of over 70% in size; further: potency means the concentration at half of the fitted maximal effect
# Summary of the method: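 Decreased firefly luciferase luminescence indicates inhibited growth of reporter-integrated P. falciparum after two generations (96 h, 37 C, 5% CO2). Infected erythrocytes at 0.1% parasitemia, 2% hematocrit, in Albumax-supplemented RPMI 1640.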
# [7] = target: Thioredoxin reductase 1, cytoplasmic (Rattus norvegicus) (UniProt O89049); experiment: qHTS Assay for Substrates of Mammalian Selenoprotein Thioredoxin Reductase 1 (TrxR1) (AID 488772); settings: purified TrxR1, NADPH consumption substrate assay;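 further: potency means the concentration at half of the fitted maximal effect; a drop in NADPH fluorescence below the no-compound background marks a TrxR1 substrate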
# Summary of the method: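 In this dual-purpose format, potential substrates are identified from the first fluorescence read after selenite addition, not from the 8-minute delta. Rat enzyme is preincubated with NADPH and then with compound at ~22 deg C.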
# [8] = target: RecQ-like DNA helicase BLM (Homo sapiens) (UniProt P54132); experiment: qHTS Validation Assay for Inhibitors of Bloom's syndrome helicase (BLM) (AID 2364); further: potency means the concentration at half of the fitted maximal effect
# Summary of the method: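 BLM 50 nM in 25 mM Tris-HCl pH 8.0, 5 mM NaCl, 2 mM MgCl2, 1 mM DTT, 0.01% Tween-20, 2.5 ug/ml poly(dI-dC); 15 min cpd preinc, RT. Start: 200 nM forked DNA + 2 mM ATP (final). TAMRA read, 2 reads 2 h apart.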
# [9] = target: Ubiquitin carboxyl-terminal hydrolase 2 (Homo sapiens) (UniProt O75604); experiment: qHTS Validation Assay for Inhibitors of Ubiquitin-specific Protease USP2a Using CHOP2 as the Reporter (AID 463106); settings: USP2a cleavage of CHOP2 reporter, enzymatic; further: potency means the concentration at half of the fitted maximal effect
# Summary of the method: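 Inhibition is expressed relative to NEM as the full-inhibition control, with concentration-response curves classed by fit quality, magnitude and activity. Enzyme (USP2 core, 10nM) meets 25nM Ub-CHOP2 after compound preincubation; readings are taken at 60min.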
# [10] = target: DNA repair nuclease/redox regulator APEX1 (Homo sapiens) (UniProt P27695); experiment: Confirmation qHTS Assay for Inhibitors of the Human Apurinic/apyrimidinic Endonuclease 1 (APE1) (AID 2572);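 further: fluorescence gain from purified APE1 cutting a TAMRA/BHQ-2 THF abasic duplex; on the % scale 0 is the no-effect control and ±100 the full control effect; nearly all actives have a fitted effect of over 30% in size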
# Summary of the method: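 Confirmation qHTS in dose-response format: APE1 exposed to compound 15 min at RT, then reaction started with 50 nM final TAMRA/BHQ-2 abasic substrate. Three fluorescence reads 60 s apart; endpoint minus initial read gives progress.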
# [11] = target: DNA repair nuclease/redox regulator APEX1 (Homo sapiens) (UniProt P27695); experiment: qHTS FP-Based Assay for Inhibitors of the Human Apurinic/apyrimidinic Endonuclease 1 (APE1) (AID 2573); settings: APE1 binding to TAMRA-labelled double-stranded DNA, fluorescence polarization displacement; further: potency means the concentration at half of the fitted maximal effect
# [12] = Validation screen for small molecules that induce DNA re-replication in MCF 10A normal breast cells (AID 463097); further: 0% is about no effect; nearly all actives have a fitted effect of over 60% in size
# Summary of the method: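 250 MCF 10A cells/well; compound pin-transferred; 48 hr, 37 C, 5% CO2; Hoechst 40 min; imaged 405/500-530 nm. Hits = more high-intensity nuclei.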
# Tags describe the fitted curve by direction and shape or compound fluorescence and quenching.
# UniProt O15648, sequence (O15648 whole entry, looked up): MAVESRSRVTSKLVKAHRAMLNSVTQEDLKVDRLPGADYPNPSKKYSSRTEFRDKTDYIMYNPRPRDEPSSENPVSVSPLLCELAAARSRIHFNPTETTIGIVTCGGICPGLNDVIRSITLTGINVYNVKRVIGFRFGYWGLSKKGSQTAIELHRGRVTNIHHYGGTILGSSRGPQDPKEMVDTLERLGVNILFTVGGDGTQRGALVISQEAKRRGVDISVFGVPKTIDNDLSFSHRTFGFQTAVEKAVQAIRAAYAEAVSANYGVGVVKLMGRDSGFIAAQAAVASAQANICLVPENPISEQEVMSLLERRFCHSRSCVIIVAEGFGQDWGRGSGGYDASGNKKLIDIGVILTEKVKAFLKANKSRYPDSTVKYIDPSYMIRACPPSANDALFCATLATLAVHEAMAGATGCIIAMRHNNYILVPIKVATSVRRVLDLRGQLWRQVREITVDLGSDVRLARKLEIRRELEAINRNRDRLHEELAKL
# UniProt P54132, sequence (P54132 whole entry, looked up): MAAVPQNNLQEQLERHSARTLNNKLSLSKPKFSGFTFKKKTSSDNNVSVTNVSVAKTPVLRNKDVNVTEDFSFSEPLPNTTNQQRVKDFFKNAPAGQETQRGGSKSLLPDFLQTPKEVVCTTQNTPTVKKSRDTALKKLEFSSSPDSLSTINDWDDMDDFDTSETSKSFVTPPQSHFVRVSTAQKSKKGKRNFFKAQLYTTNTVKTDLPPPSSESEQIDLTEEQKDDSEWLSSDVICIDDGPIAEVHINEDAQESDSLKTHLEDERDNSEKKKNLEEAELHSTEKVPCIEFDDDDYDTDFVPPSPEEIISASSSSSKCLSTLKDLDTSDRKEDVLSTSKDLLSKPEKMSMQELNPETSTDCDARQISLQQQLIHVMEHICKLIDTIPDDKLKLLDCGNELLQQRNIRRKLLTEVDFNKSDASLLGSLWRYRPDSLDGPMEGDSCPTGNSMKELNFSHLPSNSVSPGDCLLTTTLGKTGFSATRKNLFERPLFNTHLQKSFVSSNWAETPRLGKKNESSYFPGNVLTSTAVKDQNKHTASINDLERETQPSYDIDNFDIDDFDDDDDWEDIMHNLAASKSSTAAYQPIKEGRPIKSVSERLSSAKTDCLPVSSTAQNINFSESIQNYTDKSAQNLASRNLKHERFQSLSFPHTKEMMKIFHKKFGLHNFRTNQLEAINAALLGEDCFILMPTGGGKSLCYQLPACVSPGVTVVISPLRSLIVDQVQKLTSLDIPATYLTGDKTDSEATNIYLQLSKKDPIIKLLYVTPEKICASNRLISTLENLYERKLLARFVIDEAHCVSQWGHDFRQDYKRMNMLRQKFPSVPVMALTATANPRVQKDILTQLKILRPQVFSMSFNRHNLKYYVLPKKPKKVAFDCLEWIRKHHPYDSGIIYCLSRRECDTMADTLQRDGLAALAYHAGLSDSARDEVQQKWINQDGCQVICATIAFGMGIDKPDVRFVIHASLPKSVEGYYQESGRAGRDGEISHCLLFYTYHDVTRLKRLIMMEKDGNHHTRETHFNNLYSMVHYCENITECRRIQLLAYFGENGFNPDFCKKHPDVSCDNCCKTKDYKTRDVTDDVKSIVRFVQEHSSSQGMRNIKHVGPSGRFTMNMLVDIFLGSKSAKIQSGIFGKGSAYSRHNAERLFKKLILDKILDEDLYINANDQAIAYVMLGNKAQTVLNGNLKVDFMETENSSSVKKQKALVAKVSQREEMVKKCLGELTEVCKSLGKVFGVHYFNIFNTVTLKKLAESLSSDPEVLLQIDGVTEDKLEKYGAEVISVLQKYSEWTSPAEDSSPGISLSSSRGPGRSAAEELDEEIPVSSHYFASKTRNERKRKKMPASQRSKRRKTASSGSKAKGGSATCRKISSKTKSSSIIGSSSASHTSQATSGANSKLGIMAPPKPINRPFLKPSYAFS
# UniProt P27695, sequence (P27695 whole entry, looked up): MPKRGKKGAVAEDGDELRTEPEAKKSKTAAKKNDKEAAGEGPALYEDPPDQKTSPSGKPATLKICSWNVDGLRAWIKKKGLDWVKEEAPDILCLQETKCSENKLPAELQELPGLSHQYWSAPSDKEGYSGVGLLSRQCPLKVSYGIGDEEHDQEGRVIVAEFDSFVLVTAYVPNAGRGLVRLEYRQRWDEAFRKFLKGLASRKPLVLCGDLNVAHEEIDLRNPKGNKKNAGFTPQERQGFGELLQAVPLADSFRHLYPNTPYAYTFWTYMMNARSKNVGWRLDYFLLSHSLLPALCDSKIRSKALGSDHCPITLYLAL
# UniProt O89049, sequence (O89049 whole entry, looked up): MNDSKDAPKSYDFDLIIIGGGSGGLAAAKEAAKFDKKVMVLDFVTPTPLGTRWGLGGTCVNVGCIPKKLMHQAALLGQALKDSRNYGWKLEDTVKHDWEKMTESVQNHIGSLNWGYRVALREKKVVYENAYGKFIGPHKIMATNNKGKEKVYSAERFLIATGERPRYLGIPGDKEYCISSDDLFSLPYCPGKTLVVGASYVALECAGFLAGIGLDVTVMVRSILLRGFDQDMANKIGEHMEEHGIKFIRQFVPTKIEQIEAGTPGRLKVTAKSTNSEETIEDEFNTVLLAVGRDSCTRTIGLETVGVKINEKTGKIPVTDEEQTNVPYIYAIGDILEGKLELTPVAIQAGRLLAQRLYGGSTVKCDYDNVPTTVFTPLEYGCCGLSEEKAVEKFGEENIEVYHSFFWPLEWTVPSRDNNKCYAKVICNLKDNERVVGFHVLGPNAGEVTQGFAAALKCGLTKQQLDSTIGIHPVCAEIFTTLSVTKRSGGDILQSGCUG
# UniProt O75604, sequence (O75604 whole entry, looked up): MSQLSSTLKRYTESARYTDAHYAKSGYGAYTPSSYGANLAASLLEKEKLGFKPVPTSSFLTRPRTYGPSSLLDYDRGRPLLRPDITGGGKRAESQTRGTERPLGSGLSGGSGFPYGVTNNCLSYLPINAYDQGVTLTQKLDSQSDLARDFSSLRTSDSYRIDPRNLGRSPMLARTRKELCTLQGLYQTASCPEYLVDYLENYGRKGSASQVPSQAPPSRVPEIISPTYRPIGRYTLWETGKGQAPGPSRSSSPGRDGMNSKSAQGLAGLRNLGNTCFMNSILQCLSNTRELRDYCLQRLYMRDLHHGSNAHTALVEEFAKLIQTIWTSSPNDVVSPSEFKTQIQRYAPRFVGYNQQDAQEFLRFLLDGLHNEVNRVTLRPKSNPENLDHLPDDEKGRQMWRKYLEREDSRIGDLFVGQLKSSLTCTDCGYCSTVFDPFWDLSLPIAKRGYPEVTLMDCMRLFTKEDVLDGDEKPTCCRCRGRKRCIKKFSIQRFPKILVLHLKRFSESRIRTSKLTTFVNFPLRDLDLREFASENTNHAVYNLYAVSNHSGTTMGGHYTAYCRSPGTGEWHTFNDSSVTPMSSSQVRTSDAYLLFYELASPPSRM
compound,measurement,setting,value
Cc1cc(C(C)(C)C)cc(C)c1CC1=NCCN1,Potency,[1],inactive
same,Potency,[2],inactive
CCN1CCCC1CNC(=O)c1cc(S(=O)(=O)CC)c(N)cc1OC (stereo unspecified),Potency,[1],inactive
CCCCS(=N)(=O)CCC(N)C(=O)O (stereo unspecified),Potency,[3],inactive
same,Potency,[2],inactive
same,Potency,[4],active: 2.08 µM
COc1cc2c(cc1OC)C1CC(=O)C(CC(C)C)CN1CC2 (stereo unspecified),Potency,[1],"inconclusive [falling, single point]"
O=C(c1ccc(F)cc1)C1CCN(CCn2c(=O)[nH]c3ccccc3c2=O)CC1,Potency,[1],inactive
same,activity change,[5],inactive: -8.93%
same,Potency,[2],"inconclusive [activator, partial curve]"
same,Potency,[6],"inconclusive [inhibitor, single point]"
same,Potency,[4],"inconclusive [inhibitor, single point]"
COc1nc(C)nc(Cl)c1NC1=NCCN1,Potency,[6],inactive
CCCCCN(C)CCC(O)(P(=O)(O)O)P(=O)(O)O,Potency,[1],inactive
COc1ccc(Cc2nccc3cc(OC)c(OC)cc23)cc1OC,Potency,[2],inactive
CCOC(=O)c1ncn2c1CN(C)C(=O)c1cc(F)ccc1-2,Potency,[2],inactive
Nc1c2c(nc3ccccc13)CCCC2,Potency,[2],inactive
same,Potency,[6],"inconclusive [inhibitor, single point]"
same,Potency,[4],"inconclusive [inhibitor, single point]"
same,Potency,[7],"inconclusive [inhibitor, full curve, poor fit]"
CN(C)c1nc(N(C)C)nc(N(C)C)n1,Potency,[8],"inconclusive [inhibitor, partial curve, poor fit]"
same,Potency,[6],"inconclusive [inhibitor, full curve, poor fit]"
NC(=O)c1cnccn1,Potency,[1],inactive
same,Potency,[2],inactive
same,Potency,[6],inactive
CCOC(=O)C(C)Oc1cccc2c(=O)n(CC(=O)Nc3ccc4c(c3)OCCO4)ccc12 (stereo unspecified),activity change,[5],inconclusive: -34.5%
same,Potency,[2],inactive
COc1ccc2c(c1)c(CC(=O)O)c(C)n2C(=O)c1ccc(Cl)cc1,Potency,[1],"inconclusive [falling, single point]"
same,Potency,[6],inactive
O=C1CCC(N2C(=O)c3ccccc3C2=O)C(=O)N1 (stereo unspecified),Potency,[8],inconclusive [inhibitor]
same,Potency,[4],inactive
N[C@@H](Cc1ccc(O)c(O)c1)C(=O)O,Potency,[1],inactive
same,Potency,[9],"inconclusive [falling, single point]"
same,Potency,[2],active: 23.9 µM
CC1=C(C(=O)O)N2C(=O)[C@@H](NC(=O)C(N)c3ccccc3)[C@H]2SC1 (stereo partly specified),Potency,[2],"inconclusive [falling, full curve, poor fit]"
COc1cc2nc(N(C)CCCNC(=O)C3CCCO3)nc(N)c2cc1OC (stereo unspecified),Potency,[2],"inconclusive [activator, partial curve, poor fit]"
C=C1c2cccc(O)c2C(O)=C2C(=O)[C@@]3(O)C(O)=C(C(N)=O)C(=O)[C@@H](N(C)C)[C@@H]3[C@@H](O)[C@H]12,Potency,[10],inactive
same,Potency,[11],"inconclusive [inhibitor, single point]"
Cc1cn([C@H]2C[C@H](N=[N+]=[N-])[C@@H](CO)O2)c(=O)[nH]c1=O,Potency,[2],"inconclusive [activator, full curve, poor fit]"
C[C@H]1O[C@@H](n2cc(F)c(=O)[nH]c2=O)[C@H](O)[C@H]1O,Potency,[1],inactive
same,Potency,[2],"inconclusive [falling, single point]"
COc1cc2c(c(OC)c1OC)-c1ccc(OC)c(=O)cc1[C@@H](NC(C)=O)CC2,Potency,[8],inactive
same,Potency,[6],inactive
O=c1[nH]cnc2[nH]ncc12,Potency,[12],inactive
Cc1cnc(NC(=O)C2=C(O)c3ccccc3S(=O)(=O)N2C)s1,Potency,[2],"inconclusive [activator, full curve]"
same,Potency,[6],inactive
